The supplement of paper PMC12217912
This is one part of the list. Sequences were assembled here from the parent chain. Values near 0.05 are background.

B1: TEV protease; numbered along this chain (parent)
chain: MGESLFKGPRDYNPISSSICHLTNESDGHTTSLYGIGFGPFIITNKHLFRRNNGTLVVQSLHGVFKVKDTTTLQQHLVDGRDMIIIRMPKDFPPFPQKLKFREPQREERICLVTTNFQTKSMSSMVSDTSCTFPSGDGIFWKHWIQTKDGQCGSPLVSTRDGFIVGIHSASNFTNTNNYFTSVPKNFMELLTNQEAQQWVSGWRLNADSVLWGGHKVFMVKPEEPFQPVKEATQL

Variants of: B1
Assay: raw area under fraction-flipped curve 0-4 h after induction (AUC4h, not background-subtracted), DNA-recorder readout of cleavage of the substrate (dimensionless); higher = more cleavage of the substrate by the protease variant
Conditions: temperature: 34 °C; time window: 0-4 h after rhamnose induction
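Further: Bxb1 expression induced with 0.2% (w/v) L-rhamnose at OD600 near 0.5, cultures sampled hourly, flipped fraction per protease–substrate barcode pair counted by paired-end Illumina sequencing.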

| Variant | area with substrate CNLYFQS | area with substrate FNLYFQS | area with substrate GNLYFQS | area with substrate INLYFQS | area with substrate KNLYFQS | area with substrate LNLYFQS | area with substrate MNLYFQS | area with substrate NNLYFQS | area with substrate SNLYFQS | area with substrate TNLYFQS | area with substrate VNLYFQS | area with substrate WNLYFQS | area with substrate YNLYFQS | area with substrate HNLYFQS | area with substrate PNLYFQS | area with substrate RNLYFQS | area with substrate DNLYFQS | area with substrate QNLYFQS |
| --- | --- | --- | --- | --- | --- | --- | --- | --- | --- | --- | --- | --- | --- | --- | --- | --- | --- | --- |
| V217N | 0.0546 | 0.0716 | 0.0744 | 0.0703 | 0.0679 | 0.0587 | 0.0483 | 0.0619 | 0.0605 | 0.0463 | 0.0431 | 0.0602 | 0.0598 |  |  |  |  |  |
| V217H | 0.0542 | 0.0605 |  |  |  |  | 0.0559 | 0.0458 | 0.0468 |  |  | 0.0712 | 0.0551 | 0.0566 | 0.0627 |  |  |  |
| H215G | 0.0567 | 0.0589 | 0.0912 | 0.0595 |  |  | 0.0625 | 0.0619 |  | 0.0552 | 0.0674 | 0.0624 | 0.0275 | 0.0592 |  | 0.0712 |  |  |
| L205F | 0.0818 | 0.057 |  |  |  |  | 0.0701 |  |  | 0.0637 |  |  | 0.0499 | 0.0616 |  |  |  |  |
| L205N | 0.0563 |  |  |  |  | 0.0668 | 0.066 |  |  |  |  | 0.0626 | 0.0729 |  |  |  |  |  |
| P222M | 0.0894 | 0.0446 | 0.0798 |  | 0.08 |  | 0.0583 | 0.0871 | 0.0576 | 0.05 | 0.0507 | 0.11 | 0.0541 |  | 0.0699 |  | 0.0719 |  |
| P222G | 0.0687 |  |  | 0.0441 |  | 0.0671 | 0.0393 | 0.0652 | 0.0699 | 0.0612 | 0.0638 | 0.0521 | 0.0634 | 0.0328 | 0.0361 |  |  |  |
| P222V | 0.0641 |  | 0.072 |  |  | 0.0668 | 0.0566 | 0.0647 | 0.0607 | 0.0647 |  | 0.0523 | 0.0638 | 0.0544 | 0.0666 |  |  | 0.0717 |
| R204E | 0.0666 |  | 0.0747 |  |  | 0.0625 | 0.0757 |  |  | 0.0908 | 0.0699 | 0.0554 |  | 0.0673 |  |  |  | 0.0825 |
| R204N | 0.0655 | 0.0809 | 0.075 |  | 0.064 | 0.0557 | 0.0736 | 0.0485 | 0.0521 | 0.0635 | 0.0796 | 0.0584 | 0.0614 | 0.071 | 0.0693 | 0.0545 |  |  |
| G214V | 0.0666 |  |  |  |  |  | 0.0494 | 0.0472 |  | 0.0595 |  | 0.0534 |  | 0.0746 |  |  |  |  |
| G214K | 0.0547 |  | 0.0499 |  |  |  |  | 0.0067 | 0.0854 |  | 0.0617 | 0.0413 | 0.0758 |  | 0.0629 | 0.0687 |  | 0.0568 |
| G214M | 0.0489 | 0.0639 |  | 0.0605 | 0.0539 |  | 0.0712 | 0.0648 | 0.0642 | 0.082 |  | 0.0531 | 0.0601 | 0.0487 | 0.0773 |  |  |  |
| T72P |  |  | 0.0688 | 0.0949 |  |  |  | 0.0551 |  | 0.0574 |  | 0.0324 |  | 0.0401 | 0.0631 |  |  |  |
| Q227M | 0.0682 | 0.0805 | 0.083 | 0.0592 |  | 0.0532 |  | 0.0613 | 0.0709 | 0.072 |  | 0.066 | 0.0769 | 0.0681 | 0.0531 |  |  |  |
| Q227P | 0.0552 |  | 0.0728 |  | 0.0579 |  | 0.0635 |  | 0.0575 | 0.0712 |  | 0.095 | 0.0781 |  |  | 0.0619 |  |  |

| Variant | area with substrate CNLYFQS | area with substrate FNLYFQS | area with substrate GNLYFQS | area with substrate INLYFQS | area with substrate KNLYFQS | area with substrate LNLYFQS | area with substrate MNLYFQS | area with substrate NNLYFQS | area with substrate SNLYFQS | area with substrate TNLYFQS | area with substrate VNLYFQS | area with substrate WNLYFQS | area with substrate YNLYFQS | area with substrate HNLYFQS | area with substrate PNLYFQS | area with substrate RNLYFQS | area with substrate DNLYFQS | area with substrate QNLYFQS |
| --- | --- | --- | --- | --- | --- | --- | --- | --- | --- | --- | --- | --- | --- | --- | --- | --- | --- | --- |
| Q227E | 0.0577 | 0.0619 |  | 0.0673 | 0.0672 | 0.0591 | 0.0744 |  | 0.0611 | 0.0674 | 0.0677 | 0.0542 |  | 0.0528 | 0.0842 |  |  |  |
| V210G | 0.0567 |  |  |  |  |  | 0.06 |  |  | 0.0422 |  | 0.0567 |  |  | 0.0493 |  |  |  |
| V210D | 0.0637 | 0.0562 |  | 0.0737 | 0.064 | 0.0619 |  | 0.0615 | 0.0589 | 0.0566 | 0.0669 | 0.0566 |  | 0.0572 | 0.0816 |  |  | 0.0523 |
| V210K | 0.099 | 0.0558 | 0.053 |  | 0.0678 | 0.0648 | 0.063 | 0.065 |  | 0.0528 | 0.063 | 0.0503 | 0.0636 | 0.0585 |  |  |  |  |
| G213Y | 0.0385 |  |  |  | 0.0604 | 0.0535 | 0.0851 | 0.0604 | 0.0347 | 0.0602 |  | 0.0613 | 0.0628 | 0.0622 | 0.0674 | 0.0438 |  |  |
| G213S | 0.0524 | 0.0685 |  | 0.0644 | 0.0489 | 0.0788 |  |  | 0.054 | 0.0582 | 0.0356 | 0.056 |  | 0.057 | 0.084 |  |  |  |
| G213K | 0.0199 | 0.065 |  | 0.0496 | 0.044 | 0.0654 | 0.0541 | 0.0097 |  | 0.0517 | 0.0727 | 0.0508 | 0.0689 | 0.0661 | 0.0605 |  |  |  |
| G213A | 0.0663 | 0.0627 | 0.0709 | 0.0571 |  | 0.058 | 0.0533 | 0.052 | 0.0595 | 0.065 |  | 0.0545 | 0.0656 | 0.0676 | 0.0536 |  |  |  |
| P225T | 0.0765 |  |  | 0.0638 | 0.0611 |  | 0.0685 |  | 0.0647 | 0.0646 | 0.0661 | 0.0628 |  | 0.046 | 0.0531 |  |  |  |
| P225W | 0.0573 |  | 0.0831 | 0.0667 | 0.0826 |  | 0.0795 | 0.0642 | 0.0784 |  | 0.0599 |  | 0.0764 |  | 0.0642 |  |  |  |
| P225R | 0.0648 | 0.0544 | 0.0606 | 0.0746 | 0.0631 | 0.0596 | 0.0816 |  | 0.0691 | 0.064 | 0.079 | 0.0586 | 0.0538 | 0.04 | 0.0674 |  |  | 0.0607 |
| E224P | 0.0781 | 0.0601 |  | 0.0468 | 0.0734 | 0.0759 |  | 0.0786 | 0.0725 | 0.0668 | 0.0604 | 0.0547 | 0.0759 | 0.0712 | 0.056 |  |  |  |
| E224M | 0.067 |  |  | 0.0634 | 0.06 | 0.0601 |  |  | 0.0678 | 0.0613 |  | 0.0736 | 0.0626 | 0.063 | 0.0553 |  |  |  |
| K221Y | 0.0499 | 0.0654 |  | 0.0689 | 0.0606 | 0.0486 | 0.0564 | 0.0808 | 0.0652 | 0.0577 | 0.0527 | 0.0483 | 0.0636 | 0.0522 |  |  |  | 0.0611 |
| K221T | 0.0769 | 0.0659 | 0.0606 |  |  | 0.0528 |  |  |  | 0.0356 |  | 0.0602 | 0.0472 | 0.0545 |  |  |  |  |
